This experiment deals with VDR ligand binding domain tagged with GST (VDR-LBD(GST)) (Homo sapiens (Human), UniProt P11473). The experiment can be described thus: Time-resolved fluorescence resonance energy transfer (TR-FRET) vitamin D receptor (VDR) coactivator assay. For orientation: In TR-FRET formats the signal depends on donor and acceptor labels being close together.

The structures appear in SMILES notation.

By EC50 is commonly meant the concentration giving half of the maximal effect. Higher therefore signals lower potency in that assay.

Take `C[C@H]1/C(=C/C=C2C[C@@H](O)C[C@H](O)C2)CCC[C@@H]1c1ccc(O)cc1` [VIII]: the EC50 was greater than 5 µM.
Consider `C[C@H]1/C(=C/C=C2C[C@@H](O)C[C@H](O)C2)CCC[C@@H]1c1ccc(OCC(C)(C)O)cc1` [VII], for which the EC50 is greater than 5 µM.

These data come from patent US20240317663A1, “VITAMIN D3-LIKE COMPOUND” (KANAGAWA UNIVERSITY, priority 2021, published 2024).
